# Measurements taken from the supplement of paper PMC11417369.
# The other results are listed elsewhere or left out.
# System: PF3D7_0420300 AP2 domain 1 (GST-tagged)
# Assay: gcPBM binding intensity (ln(normalized median fluorescence intensity)); higher = stronger DNA binding
# Outline: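 Binding intensity values are the highest Masliner-normalised natural-log median intensity among replicate spots of either probe orientation. The binding step lasted 1 h in 1× PBS with 1% milk, 0.2 mg/ml BSA, 0.5% salmon testes DNA and 0.03% Triton X-100, using GST-tagged P. falciparum DNA-binding domains expressed in E. coli on an Agilent 4 × 180k array of primer-extended double-stranded 36-bp intergenic genomic probes plus negative controls. Alexa488 anti-GST antibody and a 488 nm scan detected bound protein.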
row,Sequence,gcPBM binding intensity (ln)
1,CTGAAGAAACTACAACGTACAAAATATGTATATATT [XGTACX_site3779],9.33
2,TTTATTAATTAAACCATACACACATAATTTTTTTAT [CACACA_site842],9.47
3,AAACGTGCGTATATGTGTACGCATATATATATATAT [XGTACX_site5252],9.27
4,AGAAAAAAAATGTATACACACAAATATAAAGAAGGA [CACACA_site3806],9.84
5,AAAATTAATAAATGAGAAAAAAGGATGAATAATGAG [CACACA_negctrl_site1614],9.57
6,ATGATATGGATAAATACACACAATATAATAATGTCT [CACACA_site1433],9.66
7,CATATATACTCATACACACACACACCGACACAGACA [CACACA_site5026],10.1
8,TATGATGAGATAACAAAAGTTGTACTTTTTTTTTTT [CACACA_negctrl_site1172],8.95
9,ATATTTTTTAGGGTCACACATACTTATTATATAAAT [CACACA_site4926],9.39
10,AATATTTAACACCTTATACACACTTTCTTCCTTTTT [CACACA_site785],9.74
11,ATGAATTTTTCTCTACAAAAGGATATAATAAAAATA [XGTACX_negctrl_site461],8.79
12,TAGTGTGCCAAATTAGCACACACATATATACATGAA [CACACA_site8910],9.42
13,TTTTCTAATTAATATTGTACATAAATGTATATATAT [XGTACX_site4749],9.05
14,ATCAAAGATAAATTTACACACATATAAATATAAATA [CACACA_site7409],9.53
15,GTTTTTATCATATCATGTACGTATTTTATTTTTTTT [XGTACX_site8643],9.81
16,CTTCTGGACAGGAATGCACACATTTTTTTTTCTTTT [CACACA_site1807],9.51
17,TATATATATATATATTGTACAAAGATTAATATATAA [XGTACX_site8433],9.12
18,ACTTAATTTTTTTATTGTACATGTAAATGAGGGAAA [XGTACX_site6305],9.04
19,TATTTTAATAAGAATAAATGAAATGAAATGAAATAT [CACACA_negctrl_site823],9.28

row,Sequence,gcPBM binding intensity (ln)
1,ACATCCTATAAATAGAGTACGTAAATTATAATACAC [XGTACX_site5338],9.4
2,TAAAACAAAATGGTAACACACACATATATATATATA [CACACA_site8590],9.61
3,AAATGACGAAATAAAATCATAAATTAAAATAAATAA [CACACA_negctrl_site655],9.23
4,ATAGCATTTCACAAATGTACATAAAAAAATAAAAAT [XGTACX_site402],9.27
5,TCCTATCATTTATATTTTACTACATAATATTGATAA [GTGCAC_negctrl_site286],9.25
6,AAATGGAAATTAATATGTACATATTTATAAGTATGA [XGTACX_site1774],9.31
7,TTATTTTTTGTATGAACACACAACTTAATTATGATG [CACACA_site2448],9.37
8,ATGTTTCTATAGATTTGTACATATTTCATATGAATA [XGTACX_site1053],9.3
9,TCTTTTCTTTTGTGTGTGCACATATAAGCATGAAAC [GTGCAC_site9910],9.6
10,TTTTTTAATTAATTACCTTTGAATGTGTATTAGGAC [GTGCAC_negctrl_site651],9
11,TTTTACAAATATTTCTGTACACATTCTCATATAATT [XGTACX_site1974],9.41
12,CCCCTATAAATAGGGTGTACTAATAAATATTTTTAA [XGTACX_site1244],9.17
13,ACGGGCGACACATAAGTGCGCAAAAAAAAAAAAATA [GTGCAC_site9688],8.94
14,TAAAATAAAAAGTTTACACACATATATAACTTTAAT [CACACA_site6456],9.45
15,GAAAAGTATAAAAAACGTACAAGTTTTATTTTCACA [XGTACX_site4604],9.19
16,TTTTATAAAACATGTAGTACATGAAAAAAAAAATTT [XGTACX_site1626],9.12
17,AAAATACAGAAACACACACACACACCCATATATATA [CACACA_site3559],10.3
18,GTATTCATTCCTTGAGTGCAATTGCAATAAATAAAA,9
19,CATATTAAGATGTGTACACATTTTTATTTTTTTTTT [CACACA_site4425],9.27

row,Sequence,gcPBM binding intensity (ln)
1,TATTACATAATATATGTACACACGCAAATACTTATA [CACACA_site7994],9.44
2,TAACAACGATACAATTGTACAAATTATATATATATA [XGTACX_site4687],9.42
3,CAAAAAAAGTTATACACACACACACGGATATAAATA [CACACA_site6619],10.1
4,AGCAAGACGGGGTGCACACAAACTAATATGCCGAAT [CACACA_site159],9.58
5,AATAATATATTATATGCATGTGTATAATTTGATATA [TGCATGCA_site1058],9.19
6,TTTGGTTATTTGACCTGTACACATTTAATTATTTTT [XGTACX_site5170],9.48
7,CAAAGGAAATGGTGTACACAATTTTTCCTTTTTCGT [CACACA_site4800],9.06
8,ACAAGTATTCCTTTTGCACACCTTTCTGCACCTTAT [CACACA_site3873],9.66
9,ATTATGAATTTAAGACGTACAAAAAATTTTTATTCA [XGTACX_site5682],9
10,AAATACTTATTCGTGGTGCAACAATTTTAAAAATTA,9
11,ATTAAAATAATACGTACACACATGTATAATACATAT [CACACA_site1005],9.63
12,TAATATATTTTTAACATGCACTGTATTTTAATATAT,9.2
13,TCTGGATTGGATTACAAGAAAATAAAATATAAAATA [CACACA_negctrl_site122],8.87
14,TATACAAATATATATGCACACACATATATGTATATG [CACACA_site9007],9.58
15,TAATTAAAGTTATCTACACACCTTTATAGATATATA [CACACA_site7778],9.31
16,TATAAAACAAATATATGTACATATCATAGTATAATA [XGTACX_site2965],9.4
17,TATAACACACAATGATGTACATTACATTATTTTTTA [XGTACX_site2076],9.25
18,AATATAATATACATATGTACATATATATATATATAT [XGTACX_site8218],9.21
19,ATATATATATATATGTGTACATATTTTTTTGAAGTG [XGTACX_site248],9.2
